Results as given in the supplement of paper PMC12645437, “Orthogonal IMiD-Degron Pairs Induce Selective Protein Degradation in Cells” (ACS Chemical Biology, 2025).
This is one part of the list.

B1: Q9UKT9 (peptide)
chain: FHCEICGREFTQKGNLLRHIKL
B2: Q9UKT9 (peptide)
chain: FICNVCGALFTQKGNLLRHIKL
B3: Q9UKT9 (peptide)
chain: FSCEICGAIFTQKGNLLRHIKL
B4: Q9UKT9 (peptide)
chain: FACPQCGAQFTQKGNLLRHIKL
B5: Q9UKT9 (peptide)
chain: FQCEICGHRFTQKGNLLRHIKL
B6: Q9UKT9 (peptide)
chain: FLCNVCGANFTQKGNLLRHIKL
B7: Q9UKT9 (peptide)
chain: FCCEICGRGFTQKGNLLRHIKL
B8: Q9UKT9 (peptide)
chain: FKCEICGHLFTQKGNLLRHIKL
B9: Q9UKT9 (peptide)
chain: FECPQCGAIFTQKGNLLRHIKL
B10: Q9UKT9 (peptide)
chain: LWCEICGFTCTQKGNLLRHIKL
B11: Q9UKT9 (peptide)
chain: LECPICGFTCTQKGNLLRHIKL
B12: Q9UKT9 (peptide)
chain: FNCPVCGAKFTQKGNLLRHIKL
B13: Q9UKT9 (peptide)
chain: FHCEICGRWFTQKGNLLRHIKL
B14: Q9UKT9 (peptide)
chain: FICEVCGALFTQKGNLLRHIKL
B15: Q9UKT9 (peptide)
chain: FFCEICGHIFTQKGNLLRHIKL
B16: Q9UKT9 (peptide)
chain: FDCNVCGARFTQKGNLLRHIKL
B17: Q9UKT9 (peptide)
chain: LVCNQCGFSCTQKGNLLRHIKL
B18: Q9UKT9 (peptide)
chain: FDCEQCGAQFTQKGNLLRHIKL
B19: Q9UKT9 (peptide)
chain: FDCPICGRTFTQKGNLLRHIKL
B20: Q9UKT9 (peptide)
chain: FWCEICGHIFTQKGNLLRHIKL
B21: Q9UKT9 (peptide)
chain: FHCEICGHQFTQKGNLLRHIKL
B22: Q9UKT9 (peptide)
chain: FVCDICGAQFTQKGNLLRHIKL
B23: Q9UKT9 (peptide)
chain: FICPICGHAFTQKGNLLRHIKL
B24: Q9UKT9 (peptide)
chain: FTCPICGAMFTQKGNLLRHIKL
B25: Q9UKT9 (peptide)
chain: FMCNVCGAEFTQKGNLLRHIKL
B26: Q9UKT9 (peptide)
chain: FTCDVCGALFTQKGNLLRHIKL
B27: Q9UKT9 (peptide)
chain: FDCPQCGACFTQKGNLLRHIKL
B28: Q9UKT9 (peptide)
chain: FDCEVCGAVFTQKGNLLRHIKL
B29: Q9UKT9 (peptide)
chain: FECEVCGAMFTQKGNLLRHIKL
B30: Q9UKT9 (peptide)
chain: FSCPVCGADFTQKGNLLRHIKL
B31: Q9UKT9 (peptide)
chain: FTCNICGAPFTQKGNLLRHIKL
B32: Q9UKT9 (peptide)
chain: FQCPICGRYFTQKGNLLRHIKL

target: no compound (DMSO); test: log2 fold change of degron read counts, EGFP-low vs EGFP+ sorted cells; higher = lower degron-EGFP level without compound (poor expression or instability); conditions: compound: DMSO control; 18 h
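Also: jurkat cells carrying a lentiviral library of mutant zinc finger degrons fused to EGFP plus mCherry, mCherry+ cells FACS sorted, degron abundance counted by next-generation sequencing.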

| Sequence | log2 fold change of degron read counts |
| --- | --- |
| B1 | -1.51 |
| B2 | -0.44 |
| B3 | -0.305 |
| B4 | -1.13 |
| B5 | -1.55 |
| B6 | -0.724 |
| B7 | -0.32 |
| B8 | -1.56 |
| B9 | 0.0482 |
| B10 | 1.02 |
| B11 | -0.383 |
| B12 | -0.0798 |
| B13 | -0.4 |
| B14 | -0.722 |
| B15 | 1.03 |
| B16 | -0.858 |

| Sequence | log2 fold change of degron read counts |
| --- | --- |
| B17 | 0.0792 |
| B18 | -1.66 |
| B19 | -0.82 |
| B20 | 1.1 |
| B21 | -1.79 |
| B22 | -2.96 |
| B23 | 0.119 |
| B24 | -0.141 |
| B25 | -1.28 |
| B26 | -0.923 |
| B27 | -1.52 |
| B28 | -1.19 |
| B29 | -2.1 |
| B30 | -0.96 |
| B31 | 0.17 |
| B32 | 0.361 |
